The full ranking holds about 110,000 compounds; the median of “z-score” is about -0.1, and the highest 2% start at about 2. The list shows a part of the results. Active and inactive are the calls of the source.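 Rule for the calls: active = z-score in the third read window above 3 or below -3; inactive = the rest.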
Biological target: Metabotropic glutamate receptor 8 (Rattus norvegicus) (UniProt P70579)
Experiment: rat mGluR8 modulators via GIRK flux, primary screen, cell-based, thallium flux, HTS (AID 488969)
Settings: HEK293 rat mGluR8, GIRK (G protein-gated inwardly rectifying potassium channel) thallium flux, FluoZin2; at 10 µM; stronger effect = higher value; submaximal glutamate (EC20) added with thallium

Chain of UniProt P70579 (P70579 whole entry, looked up): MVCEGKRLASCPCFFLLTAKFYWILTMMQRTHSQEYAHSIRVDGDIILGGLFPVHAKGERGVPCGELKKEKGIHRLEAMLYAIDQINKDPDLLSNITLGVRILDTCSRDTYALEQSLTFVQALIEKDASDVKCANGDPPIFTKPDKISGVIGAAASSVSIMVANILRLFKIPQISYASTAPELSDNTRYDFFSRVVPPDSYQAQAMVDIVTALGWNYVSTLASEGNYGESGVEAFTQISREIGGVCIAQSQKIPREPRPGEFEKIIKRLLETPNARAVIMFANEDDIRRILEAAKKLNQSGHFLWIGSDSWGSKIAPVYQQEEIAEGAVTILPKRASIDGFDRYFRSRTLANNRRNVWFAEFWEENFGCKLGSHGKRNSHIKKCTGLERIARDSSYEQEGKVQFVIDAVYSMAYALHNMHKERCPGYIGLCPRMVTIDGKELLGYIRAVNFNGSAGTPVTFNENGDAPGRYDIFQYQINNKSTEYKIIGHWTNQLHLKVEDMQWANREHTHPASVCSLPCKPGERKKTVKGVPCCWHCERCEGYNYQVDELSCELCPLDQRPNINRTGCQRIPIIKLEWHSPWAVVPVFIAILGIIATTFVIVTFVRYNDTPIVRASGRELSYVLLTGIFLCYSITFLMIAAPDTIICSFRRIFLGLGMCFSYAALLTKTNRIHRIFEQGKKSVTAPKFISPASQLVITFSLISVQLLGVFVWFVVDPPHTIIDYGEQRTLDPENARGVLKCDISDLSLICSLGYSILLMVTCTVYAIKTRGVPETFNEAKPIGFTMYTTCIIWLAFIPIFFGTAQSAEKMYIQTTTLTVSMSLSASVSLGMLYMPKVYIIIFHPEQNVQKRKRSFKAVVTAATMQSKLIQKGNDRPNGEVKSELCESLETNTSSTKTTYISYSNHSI

Question: How did the z-score turn out when CCc1ccc(-c2nn(-c3ccccc3)cc2C2SCC(=O)N2Cc2ccco2)cc1 (configuration not stated) was run?
Answer: -0.102

Question: With O=C(NCc1ccc(Cl)cc1)c1ccccc1CCc1ccccc1 as the compound, how does the z-score read?
Answer: -0.799

Question: CCOCCCNCc1cccc(OCc2ccc(F)cc2)c1 was tested. Which z-score did it give?
Answer: -0.0612

Question: COc1cc(C(=S)N2CCCC2)ccc1O was tested. Which z-score did it give?
Answer: 0.115

Question: With CCC(NC(=O)c1cccc(Cn2cc([N+](=O)[O-])cn2)c1)c1ccc(C(C)C)cc1 (configuration not stated) as the compound, how does the z-score read?
Answer: -0.13

Question: For O=C(N/N=C/C=C/c1ccccc1)c1ccccc1Br, which z-score is on record?
Answer: -0.846

Question: With O=C(c1cc(-c2ccccn2)nc2ccc(Br)cc12)N1CCc2ccccc2C1 as the compound, how does the z-score read?
Answer: -0.609

Question: How did the z-score turn out when CCOC(=O)C(C)Sc1nc2c([nH]c3ccccc32)c(=O)n1C (configuration not stated) was run?
Answer: -0.158

Question: How did the z-score turn out when COc1ccc(-c2cc(C3CC3)nc3sc(C#N)c(N)c23)cc1 was run?
Answer: -0.0657

Question: For Cc1cc(C)cc(N(CC(=O)NC2CC3CCC2C3)S(C)(=O)=O)c1 (configuration not stated), which z-score is on record?
Answer: 0.958

Question: Which z-score does the source give for CCCOc1nc(N)c(C#N)c(-c2ccccc2F)c1C#N here?
Answer: -0.0642

Question: O=C(NC1CCCCC1)C1CCN(S(=O)(=O)c2cccc3nsnc23)CC1 was tested. Which z-score did it give?
Answer: -0.163

Question: Which z-score does the source give for O=C(c1ccccc1Cl)N1CCNCC1 here?
Answer: -0.329

Question: How did the z-score turn out when CCNC(=O)CN(CCc1ccccc1)S(C)(=O)=O was run?
Answer: 0.206

Question: With Cc1ccc(C2CC2C(=O)NNC(=S)Nc2ccc(Cl)cc2)cc1 (configuration not stated) as the compound, how does the z-score read?
Answer: active: 4.55

Question: Which z-score does the source give for CC1=Nn2c(nnc2-c2ccccn2)SC1 here?
Answer: 0.109

Question: With COc1ccc(CSc2n[nH]c(C)n2)cc1[N+](=O)[O-] as the compound, how does the z-score read?
Answer: -0.15

Question: CCOC(=O)CN1C(=N)N(c2nc(NC(C)C)nc(NC(C)C)n2)CC1=O was tested. Which z-score did it give?
Answer: -0.192

Question: For O=C1CC(c2ccccc2)c2c(O)cc(O)cc2O1 (configuration not stated), which z-score is on record?
Answer: -0.0624

Question: CCCNC(=O)c1ccc(CNc2c(N3CCC(C(=O)OCC)CC3)c(=O)c2=O)cc1 was tested. Which z-score did it give?
Answer: -0.51

Question: How did the z-score turn out when O=C(O)CCC1COc2ccccc2O1 (configuration not stated) was run?
Answer: 0.155

Question: Cc1cccc(/C=N/n2c(-c3cc(-c4ccccc4)n[nH]3)n[nH]c2=S)c1 was tested. Which z-score did it give?
Answer: -0.282

Question: For COC(=O)c1cn(C(=O)c2ccccc2F)nc1N, which z-score is on record?
Answer: 0.378

Question: Which z-score does the source give for CC1CC(=O)C2=C(C1)Nc1ccccc1SC2c1ccc(F)cc1 (configuration not stated) here?
Answer: -0.875

Question: For O=C1c2ccccc2C(=O)N1c1cccc(-c2csc(Nc3ccc4c(c3)OCO4)n2)c1, which z-score is on record?
Answer: 0.00893

Question: With CCN(CC)c1nc2ccccc2nc1-n1nc(C)cc1C as the compound, how does the z-score read?
Answer: -0.474

Question: How did the z-score turn out when Cc1ccc(CNc2ccc(Cl)cc2[N+](=O)[O-])cc1 was run?
Answer: -0.161

Question: For Cc1c(/C=N/NC(=O)CNc2ccccc2)c2ccccn2c1C(=O)c1ccc(Cl)cc1, which z-score is on record?
Answer: 0.0396

Question: How did the z-score turn out when CCn1cc(C(=O)N2CCn3c(nc4ccccc43)C2)c(=O)c2ccc(C)nc21 was run?
Answer: -0.443

Question: With O=C(NCc1ccc(F)cc1)C1CCCN(S(=O)(=O)c2cccc3nsnc23)C1 (configuration not stated) as the compound, how does the z-score read?
Answer: 0.929

Question: O=C1NN(c2ccc(F)cc2)C(=O)/C1=C\C=C\c1ccco1 was tested. Which z-score did it give?
Answer: -0.607

Question: How did the z-score turn out when COC(=O)c1ccc(NC(=S)NCCC2=CCCCC2)cc1 was run?
Answer: 0.0546

Question: CCOCCCn1c(SCC(=O)Nc2ccc(C(N)=O)cc2)nc2ccccc2c1=O was tested. Which z-score did it give?
Answer: 0.766

Question: O=C1CN2C(=N1)N(Cc1ccccc1)c1ccccc12 was tested. Which z-score did it give?
Answer: -0.243

Question: For C=CCn1c(N)c(C(=O)NCc2ccco2)sc1=S, which z-score is on record?
Answer: 0.688

Question: Which z-score does the source give for COc1ccc(S(=O)(=O)N(C)CC(=O)NCc2cccnc2)cc1 here?
Answer: -0.0918

Question: How did the z-score turn out when CC(C)(C)c1ccc(OC(=O)Cn2c(C(F)(F)F)nc3ccccc32)cc1 was run?
Answer: 1.01

Question: How did the z-score turn out when CCCCC(=O)Nc1ccc(F)c(Cl)c1 was run?
Answer: 0.611

Question: With CCOC(=O)N1CCC(c2cc(=O)n3[nH]cc(C(=O)OC)c3n2)CC1 as the compound, how does the z-score read?
Answer: -0.352

Question: For O=C(NCCCc1ccccc1)c1ccc(Br)o1, which z-score is on record?
Answer: 0.526

Question: How did the z-score turn out when CC(C)C(=O)Nc1nnc(CSCc2ccccc2F)s1 was run?
Answer: -0.45

Question: Which z-score does the source give for Cn1ccnc1SCC(=O)NC1CC1 here?
Answer: -0.316

Question: Which z-score does the source give for Cc1c(C(=O)C(=O)N2c3ccc(F)cc3CCC2C)c2ccccc2n1C (configuration not stated) here?
Answer: -0.104

Question: With CCC1CCc2c([nH]c3ccccc3c2=O)O1 (configuration not stated) as the compound, how does the z-score read?
Answer: -0.126

Question: Which z-score does the source give for COc1ccc(Cl)cc1NC(=O)COC(=O)C(CC(C)C)N1C(=O)C2CC=CCC2C1=O (configuration not stated) here?
Answer: -0.318

Question: Oc1ccc(Cl)cc1/C=N/c1nc2ccccc2[nH]1 was tested. Which z-score did it give?
Answer: 1.02

Question: Which z-score does the source give for C/C(=C\C(=O)c1ccccc1)Nc1cccc(O)c1 here?
Answer: -0.407

Question: With CC(C)C(c1nnnn1C1CCCCC1)N1CCCc2ccccc21 (configuration not stated) as the compound, how does the z-score read?
Answer: -1.25

Question: With Cn1nc(C(F)(F)F)c(/C=N/OC(=O)c2ccccc2)c1SCc1ccc(Cl)cc1 as the compound, how does the z-score read?
Answer: -0.325

Question: With O=C(Nc1ccc(Cl)cn1)c1ccc(-c2cc(Cl)ccc2Cl)o1 as the compound, how does the z-score read?
Answer: -0.144

Question: With Cc1ccc(C(=O)COC(=O)CN2C(=O)C3C4CCC(C4)C3C2=O)cc1[N+](=O)[O-] (configuration not stated) as the compound, how does the z-score read?
Answer: -0.0994

Question: Which z-score does the source give for CCCOc1ccc(NC(=O)C(=O)NCCCn2ccnc2)cc1 here?
Answer: -0.242

Question: COC(=O)c1ccc(SCC(=O)N2CCC(C)CC2)c([N+](=O)[O-])c1 was tested. Which z-score did it give?
Answer: -1.09

Question: COc1ccccc1OCC(=O)NNC(=O)c1cnccn1 was tested. Which z-score did it give?
Answer: 0.0267

Question: Cc1cc(C)nc(-n2nc(C)cc2NC(=O)CNC2CCCCC2)n1 was tested. Which z-score did it give?
Answer: 0.0283

Question: For COc1ccc(-c2c(C)nn(-c3ccccc3)c2N)cc1OC, which z-score is on record?
Answer: -0.0127

Question: O=C(CSc1nnnn1-c1ccccc1)Nc1ccc(Cl)cc1 was tested. Which z-score did it give?
Answer: -0.377

Reference: PubChem BioAssay AID488969 (Vanderbilt High Throughput Screening Facility, 2010)
